# Assay results from PMC12529666.
# The entries are a selection whose mix differs from that of the whole data set. At the low end of the ranking, values are background and their order means little. The list shows a part of the results.
# Tests used:
# [1] = biological target: AGO2 WT (phosphosite mutant background) S387D + S824A + S828D + S831D + S834A (UniProt Q9UKV8); assay: RNA Bind-n-Seq (nitrocellulose filter binding and sequencing); conditions: constant regions annealed to DNA blockers; guide miR-122 5' phosphate; 30 mM Tris pH 8.0, 100 mM potassium acetate, 2 mM magnesium acetate, 0.5 mM TCEP, 0.005% NP-40, 0.01 mg/ml yeast tRNA; 3 nM AGO2-miR-122, 100 nM RNA library …; high values mean tight binding
# [2] = biological target: AGO2 F182del S387D + S824A + S828D + S831D + S834A + del182-182 (UniProt Q9UKV8); assay: as above; conditions: constant regions annealed to DNA blockers; guide miR-122 5' phosphate; 30 mM Tris pH 8.0, 100 mM potassium acetate, 2 mM magnesium acetate, 0.5 mM TCEP, 0.005% NP-40, 0.01 mg/ml yeast tRNA; 3 nM AGO2-miR-122, 100 nM RNA library …; high values mean tight binding
# Sequence of UniProt Q9UKV8 (Q9UKV8 whole entry S387D/S824A/S828D/S831D/S834A): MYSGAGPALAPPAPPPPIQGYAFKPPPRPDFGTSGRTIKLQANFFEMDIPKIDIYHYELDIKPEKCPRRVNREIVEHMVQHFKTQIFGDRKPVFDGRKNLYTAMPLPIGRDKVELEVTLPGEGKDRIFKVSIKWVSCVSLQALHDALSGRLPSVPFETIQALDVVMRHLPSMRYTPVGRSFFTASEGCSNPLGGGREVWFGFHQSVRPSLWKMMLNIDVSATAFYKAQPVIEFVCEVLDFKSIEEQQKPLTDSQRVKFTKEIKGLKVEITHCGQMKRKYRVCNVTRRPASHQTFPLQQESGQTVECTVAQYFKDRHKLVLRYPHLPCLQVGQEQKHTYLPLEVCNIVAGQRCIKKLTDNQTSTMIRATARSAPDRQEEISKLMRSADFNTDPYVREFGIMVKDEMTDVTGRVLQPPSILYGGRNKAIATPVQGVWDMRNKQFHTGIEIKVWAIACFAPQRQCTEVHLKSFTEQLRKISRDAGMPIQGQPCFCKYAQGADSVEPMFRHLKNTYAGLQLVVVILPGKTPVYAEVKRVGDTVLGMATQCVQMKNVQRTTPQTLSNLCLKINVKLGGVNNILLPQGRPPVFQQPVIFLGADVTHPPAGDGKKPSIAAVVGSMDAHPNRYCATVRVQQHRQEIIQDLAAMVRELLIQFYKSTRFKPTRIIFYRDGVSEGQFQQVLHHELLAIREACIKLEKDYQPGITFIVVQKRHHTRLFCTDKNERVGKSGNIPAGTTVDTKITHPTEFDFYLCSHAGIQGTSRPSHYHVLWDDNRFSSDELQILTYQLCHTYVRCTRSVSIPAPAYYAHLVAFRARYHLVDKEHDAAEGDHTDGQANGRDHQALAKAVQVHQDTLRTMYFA
Sequence,binding signal (fold enrichment over input) [1],binding signal (fold enrichment over input) [2]
GAGUUCUACAGUCCGACGAUCCCAACAUGCCCUACACCUGGAAUUCUCGGGUGCCAA / UGGAGUGUGACAAUGGUGUUUG / GATCGTCGGACTGTAGAACTC / TTGGCACCCGAGAATTCCA,0.0977,0.0557
GAGUUCUACAGUCCGACGAUCCCAACAUGUCCUACACCUGGAAUUCUCGGGUGCCAA / UGGAGUGUGACAAUGGUGUUUG / GATCGTCGGACTGTAGAACTC / TTGGCACCCGAGAATTCCA,0.117,0.262
GAGUUCUACAGUCCGACGAUCCCAACGUGUUCCGCACCUGGAAUUCUCGGGUGCCAA / UGGAGUGUGACAAUGGUGUUUG / GATCGTCGGACTGTAGAACTC / TTGGCACCCGAGAATTCCA,0.101,0.0438
GAGUUCUACAGUCCGACGAUCCCAACGUAUUCUGCACCUGGAAUUCUCGGGUGCCAA / UGGAGUGUGACAAUGGUGUUUG / GATCGTCGGACTGTAGAACTC / TTGGCACCCGAGAATTCCA,0.0928,0.0494
GAGUUCUACAGUCCGACGAUCCCAACGUGUUCUACACCUGGAAUUCUCGGGUGCCAA / UGGAGUGUGACAAUGGUGUUUG / GATCGTCGGACTGTAGAACTC / TTGGCACCCGAGAATTCCA,0.0969,0.0499
GAGUUCUACAGUCCGACGAUCCCAACGUAUUCCGCACCUGGAAUUCUCGGGUGCCAA / UGGAGUGUGACAAUGGUGUUUG / GATCGTCGGACTGTAGAACTC / TTGGCACCCGAGAATTCCA,0.11,0.0846
GAGUUCUACAGUCCGACGAUCCCAACACAUUUUGCACCUGGAAUUCUCGGGUGCCAA / UGGAGUGUGACAAUGGUGUUUG / GATCGTCGGACTGTAGAACTC / TTGGCACCCGAGAATTCCA,0.0851,0.0905
